From the supplement of paper PMC4967469
A lower IC50 marks a more sensitive line; fits outside the tested doses are given as limits. AUC is the area under the same curve over the 256-fold range up to the top dose, as a fraction: 1 means no effect, lower means more sensitive. For some assays here: Where the top dose is marked as inferred, it is not printed in the source and was worked back from the curve model. For some assays here: Where an entry number is given, a second screen of the drug exists; the two often differ.

Tests used:
Experiment in all cases: Viability of human cancer cell lines after 72 h of drug (GDSC screen)
Thapsigargin = compound: C/C=C(/C)C(=O)O[C@H]1C(C)=C2[C@H]([C@@H]1OC(=O)CCCCCCC)[C@@](C)(OC(C)=O)C[C@H](OC(=O)CCC)[C@@]1(O)[C@H]2OC(=O)[C@@]1(C)O [Thapsigargin]; settings: top dose 0.512 µM; top dose inferred
Experimental: (§1)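 Human cancer cell lines in 384-well plates, medium with 10% serum, drug for 72 h over a 256-fold dose range (nine 2-fold or five 4-fold steps up to the top dose). Adherent lines were fixed and stained with the nucleic acid dye Syto60, suspension lines read with resazurin; signal relative to control wells, capped at 0 and 100%. One two-parameter sigmoid per drug and line, fitted in a mixed model over all curves with the slope shared within a line.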

CHIR-99021 = compound: Cc1cnc(-c2cnc(NCCNc3ccc(C#N)cn3)nc2-c2ccc(Cl)cc2Cl)[nH]1 [CHIR-99021]
Experimental: as §1

ABT-869 = compound: Cc1ccc(F)c(NC(=O)Nc2ccc(-c3cccc4[nH]nc(N)c34)cc2)c1 [ABT-869]; settings: top dose 1.024 µM; top dose inferred
Experimental: as §1

KU-55933 = compound: O=c1cc(-c2cccc3c2Sc2ccccc2S3)oc(N2CCOCC2)c1 [KU-55933]; settings: top dose 10 µM
Experimental: as §1

GSK269962A = compound: CCn1c(-c2nonc2N)nc2cnc(Oc3cccc(NC(=O)c4ccc(OCCN5CCOCC5)cc4)c3)cc21 [GSK269962A]; settings: top dose inferred
Experimental: as §1

(5Z)-7-Oxozeaenol = compound: COc1cc(O)c2c(c1)/C=C/C[C@H](O)[C@H](O)C(=O)/C=C\C[C@H](C)OC2=O [(5Z)-7-Oxozeaenol]; settings: top dose 10 µM; top dose inferred
Experimental: as §1

Zibotentan = compound: COc1nc(C)cnc1NS(=O)(=O)c1cccnc1-c1ccc(-c2nnco2)cc1 [Zibotentan]; settings: top dose 20 µM; top dose inferred
Experimental: as §1

QL-X-138 = compound: C=CC(=O)Nc1cc(-n2c(=O)ccc3cnc4ccc(-c5cn[nH]c5)cc4c32)ccc1C [QL-X-138]; settings: top dose 10.24 µM; top dose inferred
Experimental: as §1

CP466722 = compound: COc1cc2ncnc(-n3nc(-c4ccccn4)nc3N)c2cc1OC [CP466722]; settings: top dose 16 µM; top dose inferred
Experimental: as §1

ABT-888 = compound: C[C@]1(c2nc3c(C(N)=O)cccc3[nH]2)CCCN1 [ABT-888]; settings: top dose 5 µM; top dose inferred
Experimental: as §1

MPS-1-IN-1 = compound: COc1cc(N2CCC(O)CC2)ccc1Nc1cc(Nc2ccccc2S(=O)(=O)C(C)C)c2cc[nH]c2n1 [MPS-1-IN-1]; settings: top dose 20 µM; top dose inferred
Experimental: as §1

[1] = top dose 2.56 µM, screen: GDSC drug entry 154
[2] = top dose 10 µM, screen: GDSC drug entry 1241, top dose inferred
[3] = top dose 5 µM, screen: GDSC drug entry 1192
[4] = top dose 2.5 µM, screen: GDSC drug entry 127

Cell Line	AUC (Thapsigargin)	IC50 (Thapsigargin) [µM]	AUC (CHIR-99021; [1])	IC50 (CHIR-99021; [1]) [µM]	AUC (CHIR-99021; [2])	IC50 (CHIR-99021; [2]) [µM]	AUC (ABT-869)	IC50 (ABT-869) [µM]	AUC (KU-55933)	IC50 (KU-55933) [µM]	AUC (GSK269962A; [3])	IC50 (GSK269962A; [3]) [µM]	AUC ((5Z)-7-Oxozeaenol)	IC50 ((5Z)-7-Oxozeaenol) [µM]	AUC (Zibotentan)	IC50 (Zibotentan) [µM]	AUC (QL-X-138)	IC50 (QL-X-138) [µM]	AUC (CP466722)	IC50 (CP466722) [µM]	AUC (ABT-888)	IC50 (ABT-888) [µM]	AUC (MPS-1-IN-1)	IC50 (MPS-1-IN-1) [µM]	AUC (GSK269962A; [4])	IC50 (GSK269962A; [4]) [µM]
JHU-011 (head and neck, adherent)	0.239	0.00574	0.979	> 2.56	0.981	> 10	0.973	> 1.02	0.931	> 10	0.965	> 5	0.579	1.02	0.986	> 20	0.649	1.64	0.803	7.76	0.972	> 5	0.86	16.3	–	–
JHU-022 (head and neck, adherent)	0.887	> 0.512	0.98	> 2.56	0.972	> 10	0.979	> 1.02	0.908	> 10	0.909	> 5	0.599	1.26	0.971	> 20	0.853	> 10.2	0.931	> 16	0.967	> 5	0.889	> 20	–	–
JIMT-1 (breast, adherent)	0.261	0.00622	0.976	> 2.56	0.955	> 10	0.985	> 1.02	0.967	> 10	0.923	> 5	0.653	1.72	0.985	> 20	0.854	9.05	0.86	15.2	0.974	> 5	0.961	> 20	–	–
KON (head and neck, adherent)	0.199	0.00418	0.986	> 2.56	0.982	> 10	0.983	> 1.02	0.965	> 10	0.901	> 5	0.776	3.89	0.983	> 20	0.963	> 10.2	0.98	> 16	0.987	> 5	0.983	> 20	–	–
KU-19-19 (bladder, adherent)	0.592	0.0574	0.969	> 2.56	0.862	8.6	0.984	> 1.02	0.927	> 10	0.871	4.68	0.236	0.108	0.986	> 20	0.93	> 10.2	0.937	> 16	0.986	> 5	0.987	> 20	–	–
KYM-1 (rhabdomyosarcoma, adherent)	0.158	0.00357	0.991	> 2.56	0.991	> 10	0.991	> 1.02	0.941	> 10	0.927	> 5	0.232	0.121	0.991	> 20	0.78	3.59	0.93	> 16	0.966	> 5	0.979	> 20	0.841	1.38
LN-18 (glioma, adherent)	0.319	0.0112	0.994	> 2.56	0.963	> 10	0.992	> 1.02	0.984	> 10	0.936	> 5	0.825	4.54	0.994	> 20	0.975	> 10.2	0.971	> 16	0.994	> 5	0.993	> 20	–	–
LS-180 (large intestine, adherent)	0.289	0.0074	0.978	> 2.56	0.975	> 10	0.984	> 1.02	0.941	> 10	0.883	> 5	0.658	1.84	0.984	> 20	0.865	> 10.2	0.9	> 16	0.978	> 5	0.981	> 20	–	–
MDA-MB-231 (breast, adherent)	0.153	0.00248	0.986	> 2.56	0.963	> 10	0.981	> 1.02	0.981	> 10	0.904	> 5	0.537	0.796	0.986	> 20	0.818	6.24	0.866	15.8	0.975	> 5	0.986	> 20	–	–
ME-180 (cervix, adherent)	0.896	> 0.512	0.985	> 2.56	0.984	> 10	0.977	> 1.02	0.946	> 10	0.893	> 5	0.541	0.812	0.986	> 20	0.535	0.803	0.762	5.95	0.978	> 5	0.906	> 20	–	–
MG-63 (osteosarcoma, adherent)	0.208	0.00373	0.958	> 2.56	0.906	> 10	0.984	> 1.02	0.94	> 10	0.9	> 5	0.611	1.33	0.984	> 20	0.984	> 10.2	0.984	> 16	0.983	> 5	0.984	> 20	–	–
